Reference: PubChem BioAssay (NCI)
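Test compounds were applied to cells in 96-well plates for 48 hours at 5 doses. At the GI50, growth is halved. Definition used: TGI = concentration required for complete inhibition of growth.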

System: NCI-H322M lung
Experiment: NCI tumour cell line growth inhibition, 48 h

With `COc1ccc([C@H]2C(C(=O)c3ccc(Cl)cc3)C3(N[C@@H]2c2ccccc2)C(=O)Nc2ccc(Br)cc23)cc1` (some centres not stated) the GI50 was 13.4 µM and the TGI was > 53.3 µM.
